Assay results taken from ChEMBL document CHEMBL4888484, “Replenishing the malaria drug discovery pipeline: Screening and hit evaluation of the MMV Hit Generation Library 1 (HGL1) against asexual blood stage Plasmodium falciparum ,using a nano luciferase reporter read-out” (2022).
The campaign covered roughly 150,000 compounds. About 540 (0.36%) showed an effect of 50% or more. This is one part of the list.

These compounds were tested on Plasmodium falciparum (assay: Primary screen in NF54 nanoGlo assay, in single point, at 2uM, 72h; a lower Z score goes with more inhibition). Details: timepoint 72 hour.
Assay type: functional, Erythrocyte
For `CCCc1nc2cccnc2n1[C@H]1CCN(S(=O)(=O)c2cccnc2)C1`, the “% Inhibition” value was -7% and the Z score was 0.74.
With `COc1ccccc1C(=O)N1CCN(Cc2nnc(C)s2)CC1` the “% Inhibition” value was 6% and the Z score was -1.16.
In the case of `COc1ccc(Cl)cc1NC(=O)Cn1c(=O)c(N2CCCCC2)nc2ccccc21`, the “% Inhibition” value is reported as -17% and the Z score is reported as 1.67.
For `C[C@H]1CN(C(=O)c2cc(N(C)C)ccn2)C(C)(C)CO1`, the “% Inhibition” value was -7% and the Z score was 0.71.
For `CCN1C[C@@H](C(=O)N(Cc2cnn(C)c2)C2CCCCC2)CC1=O`, the “% Inhibition” value was -16% and the Z score was 2.3.
With `CC(=O)Nc1cccc(C#CCN2CCN(c3ccc(F)cc3)CC2)c1` the “% Inhibition” value was 32% and the Z score was -1.28.
With `CC(C)=CCC/C(C)=C/CN1CCC[C@H]1C(=O)O` the “% Inhibition” value was -11% and the Z score was 2.13.
For `Cc1noc(C)c1CNCc1c(C(F)(F)F)cnn1C`, the “% Inhibition” value was -3% and the Z score was 0.42.
In the case of `CCCn1ncnc1[C@H](C)NS(=O)(=O)N1CCCC1`, the “% Inhibition” value is reported as -17% and the Z score is reported as 2.24.
With `C=C(C)COCCNC(=O)c1ccc(Br)c(O)c1` the “% Inhibition” value was -13% and the Z score was 1.33.
With `COc1ccc(C(C)CC(=O)N2CCCCC2c2nc(-c3ccccc3)c[nH]2)cc1` (stereo not drawn) the “% Inhibition” value was 0% and the Z score was -0.02.
For `Cc1nn(Cc2nc([C@H]3CCOC3)no2)c(=O)c2ccccc12`, the “% Inhibition” value was -16% and the Z score was 1.54.
For `O=C(c1c[nH]nn1)N1CCC(OCc2ccc(Cl)c(Cl)c2)CC1`, the “% Inhibition” value was -5% and the Z score was 0.94.
For `CCCN(CC(=O)N(Cc1ccccc1)Cc1ccc(C)o1)C(=O)N(C)C`, the “% Inhibition” value was -6% and the Z score was 0.85.
In the case of `CC1(C)[C@H](C(=O)Nc2ccc(Br)cc2)CC[C@]1(C)C(=O)O`, the “% Inhibition” value is reported as -10% and the Z score is reported as 1.32.
`Cc1nn(CCC(C)C)c2nc(-c3cnc(C)n3C)[nH]c12` was tested, and the “% Inhibition” value was -7% and the Z score was 1.19.
For `N#CCCN(Cc1cc(F)c(F)c(F)c1)CC1CC1`, the “% Inhibition” value was -2% and the Z score was 0.2.
With `CCc1c(C(=O)N2CCC(c3ccnn3CCO)CC2)cnn1-c1cccc(Cl)c1` the “% Inhibition” value was -3% and the Z score was 0.24.
For `CC(C)(C(=O)NCc1c(F)cccc1OC(F)F)c1c[nH]cn1`, the “% Inhibition” value was -1% and the Z score was 0.06.
In the case of `NC(=O)Cn1cc2c(n1)[C@@H](NS(=O)(=O)c1ccccc1Cl)CCC2`, the “% Inhibition” value is reported as -3% and the Z score is reported as 0.31.
With `CC[C@@H](CCO)NC(=O)Nc1sc(C)nc1C` the “% Inhibition” value was 13% and the Z score was -1.32.
In the case of `Cc1nnnn1[C@@H](C(=O)N1CCCNC(=O)C1)c1ccccc1`, the “% Inhibition” value is reported as -8% and the Z score is reported as 0.73.
For `O=S(=O)(c1ccccc1)N1CCC(=C2CC2)CC1`, the “% Inhibition” value was -14% and the Z score was 1.58.
With `CC(=O)c1cccc(NC(=O)c2ccc(N(C)C3CCCCC3)cc2)c1` the “% Inhibition” value was 3% and the Z score was -0.52.
In the case of `Cc1cc(C)c(NC(=O)CN2CCC3(CC2)N=C(c2ccccc2)C(=O)N3)c(C)c1`, the “% Inhibition” value is reported as -11% and the Z score is reported as 1.12.
With `N#Cc1cccc(C(=O)Nc2ccccc2-c2ccc(=O)[nH]n2)c1` the “% Inhibition” value was 3% and the Z score was -0.43.
`c1ccc(-c2csc(N3CCN(c4ccccn4)CC3)n2)cc1` was tested, and the “% Inhibition” value was 2% and the Z score was -0.26.
For `C=CCOC[C@@H](O)CN(CCCOC)Cc1ccc(F)cc1F`, the “% Inhibition” value was -1% and the Z score was 0.17.
`Cc1cc(=O)c(C(=O)N2CCC(C)(C(=O)N(C)C)CC2)cn1C` was tested, and the “% Inhibition” value was -10% and the Z score was 0.96.
For `O=C(Nc1cccc(CO)c1)C1=CCCC1`, the “% Inhibition” value was -6% and the Z score was 0.92.
For `Cc1ccc(C2CN(C)C3(C(=O)N(Cc4cccc(Cl)c4)c4ccccc43)C2C(=O)c2ccccc2)cc1` (stereo not drawn), the “% Inhibition” value was 3% and the Z score was -0.36.
`O=C(NCC1CCN(Cc2nnc(-c3ccccc3)o2)CC1)[C@H]1CCCO1` was tested, and the “% Inhibition” value was 6% and the Z score was -1.08.
For `CCn1cc(S(=O)(=O)N2CC[C@H](CCOc3ccccc3F)C2)cn1`, the “% Inhibition” value was -23% and the Z score was 4.44.
With `CNC(=O)Cn1nc(COC)n(-c2ccc3c(c2)OCO3)c1=O` the “% Inhibition” value was -4% and the Z score was 0.77.
With `O=C(Cn1cnc2ccccc2c1=O)NCc1cc(C2CC2)ncn1` the “% Inhibition” value was 21% and the Z score was -2.77.
`Cc1ccc(-n2cccc2CC(=O)N[C@@H](C)c2cccnc2)cc1` was tested, and the “% Inhibition” value was 3% and the Z score was -0.45.
With `COC(=O)C[C@H]1CN(C(=O)CCN2C(=O)c3ccc(C)cc3C2=O)CCO1` the “% Inhibition” value was -6% and the Z score was 1.1.
In the case of `CC(=O)c1cccc(NC(=O)Cn2nc3c(N4CCCCCC4)nccn3c2=O)c1`, the “% Inhibition” value is reported as -4% and the Z score is reported as 0.38.
In the case of `Cc1ccccc1Cn1c2c(c(C)c1C(=O)NCc1ccc3c(c1)OCO3)CCCC2`, the “% Inhibition” value is reported as -17% and the Z score is reported as 2.5.
`CC(C)(C)OC(=O)N1CCC[C@H](NC(=O)c2ccccc2Br)CC1` was tested, and the “% Inhibition” value was 0% and the Z score was -0.08.
For `O=S(=O)(c1ccc(Cl)cc1)N1CCC(n2cnc3cccnc32)CC1`, the “% Inhibition” value was -1% and the Z score was 0.09.
`CCn1cc(C)c(C(=O)O)c1CC(=O)N1CCN(c2ccc(F)cc2)CC1` was tested, and the “% Inhibition” value was -5% and the Z score was 0.6.
`O=C(C(F)F)N1CCCc2c(Br)cccc2C1` was tested, and the “% Inhibition” value was -11% and the Z score was 1.32.
In the case of `COc1ccc(C(=O)NCCNC(=O)c2nc(-c3cccc(C)c3)no2)cc1OC`, the “% Inhibition” value is reported as -12% and the Z score is reported as 1.17.
For `O=C(Cn1nnc2ccccc21)N(Cc1cccnc1)C1(C(=O)Nc2ccc(N3CCOCC3)cc2)CCCCC1`, the “% Inhibition” value was 2% and the Z score was -0.25.
For `O=C(C1CCC1)N1CCO[C@H](c2cc(Cl)cc(Cl)c2)C1`, the “% Inhibition” value was -6% and the Z score was 0.75.
In the case of `CCC[C@H](C)C(=O)N1CCc2c(c(C(=O)O)nn2Cc2ccc(OC)cc2)C1`, the “% Inhibition” value is reported as -11% and the Z score is reported as 1.35.
With `CC(C)[C@H](CNC(=O)CCCOc1ccccc1Br)N1CCOCC1` the “% Inhibition” value was -16% and the Z score was 2.09.
`COc1cccc(N2CCC(N3C[C@H](O)[C@@H](F)C3)CC2)c1` was tested, and the “% Inhibition” value was 1% and the Z score was -0.1.
`COc1c(N)ccnc1C#CCC1CCCC1` was tested, and the “% Inhibition” value was 3% and the Z score was -0.34.
For `Cc1oc(-c2ccc(C(C)C)cc2)nc1Cn1c(=O)cc(-c2ccccc2)c2c(C)nn(C)c21`, the “% Inhibition” value was -6% and the Z score was 1.11.
In the case of `CC(C)c1cc(CN(C)C(=O)[C@@H](C)Cn2cccn2)on1`, the “% Inhibition” value is reported as -11% and the Z score is reported as 2.19.
In the case of `Cc1nc(C(=O)N[C@@H]2CNC(=O)C2)c(Br)s1`, the “% Inhibition” value is reported as -11% and the Z score is reported as 1.43.
For `CC(C)[C@H](NC(=O)CCS(=O)(=O)N(C)C)c1cnn(C)c1`, the “% Inhibition” value was -5% and the Z score was 0.63.
For `Cc1cc([C@@H](C#N)c2ccc(Cl)cc2)c(Cl)cc1NC(=O)Cc1ccc(F)cc1`, the “% Inhibition” value was 4% and the Z score was -0.5.
For `Cc1ccc(C(=O)N2CCN(C(=O)NCc3ccc(Cl)cn3)CC2)cc1`, the “% Inhibition” value was -2% and the Z score was 0.25.
With `C1=Cn2nc(/C=C/c3c[nH]c4ccccc34)nc2-c2ccccc2O1` the “% Inhibition” value was -30% and the Z score was 3.55.
With `COc1ccc(C(C)CN2CCC(S(=O)(=O)NC(C)C)C2)cc1` (stereo not drawn) the “% Inhibition” value was -10% and the Z score was 0.93.
For `Cc1ccc2nccc(C(=O)N3CCC[C@@](CO)(CCOc4ccccc4)C3)c2c1`, the “% Inhibition” value was -2% and the Z score was 0.44.
For `CN(CCNS(C)(=O)=O)CCc1nccs1`, the “% Inhibition” value was -14% and the Z score was 1.42.
In the case of `CC(=O)NCCCS(=O)(=O)c1ccc(F)c(F)c1`, the “% Inhibition” value is reported as -10% and the Z score is reported as 1.32.
In the case of `Cc1nnc([C@H](C)N(C)CC2(C)CCN(Cc3ccccc3)CC2)o1`, the “% Inhibition” value is reported as -5% and the Z score is reported as 0.84.
For `O=S(=O)(c1ccccc1)N1CCC(c2nccn2CC2CC2)CC1`, the “% Inhibition” value was -16% and the Z score was 1.97.
`CC1(C)C[C@@H](NC(=O)c2ccnc3ccncc23)CCS1(=O)=O` was tested, and the “% Inhibition” value was 10% and the Z score was -1.07.
For `C[C@]1(CCC(=O)NCc2cc(-c3ccccc3)[nH]n2)CCC(=O)N1`, the “% Inhibition” value was 1% and the Z score was -0.1.
With `c1ccc(CNc2cc(-n3cccn3)nc(-c3ccccc3)n2)cc1` the “% Inhibition” value was 7% and the Z score was -1.27.
`COc1cccc(CN2CCN(C)C2=O)c1OC` was tested, and the “% Inhibition” value was -5% and the Z score was 0.94.
`COc1ccc(C2=NN=C(n3nc(C)c(-c4ccc(OC)cc4)c3N)c3ccccc3C2)cc1` was tested, and the “% Inhibition” value was 5% and the Z score was -0.64.
In the case of `CC1(C)CCC(C(=O)NC2CCC23CCCC3)O1` (stereo not drawn), the “% Inhibition” value is reported as 2% and the Z score is reported as -0.37.
In the case of `NC(=O)c1c(NC(=O)CN2CCCCCC2)sc2c1CCCC2`, the “% Inhibition” value is reported as -11% and the Z score is reported as 2.12.
For `Cn1c(COc2cccc3ccccc23)c(C#N)c2ccccc21`, the “% Inhibition” value was -40% and the Z score was 4.75.
For `CC[C@@H]1Oc2ccc(Cl)cc2N(CC(=O)Nc2ccc3sc(NC(C)=O)nc3c2)C1=O`, the “% Inhibition” value was -7% and the Z score was 0.87.
With `Cc1ccc(C)n1CC(=O)Nc1ncn[nH]1` the “% Inhibition” value was 2% and the Z score was -0.3.
In the case of `O=C(C[C@H]1CCOC1)NCCCC1CCCC1`, the “% Inhibition” value is reported as -12% and the Z score is reported as 2.28.
With `Cn1cnc2c1CCN(C[C@H](O)c1ccccc1F)C2` the “% Inhibition” value was -4% and the Z score was 0.59.
For `COCCCNC(=O)[C@@H]1CC2(CCN(C(=O)c3ccc(C)cc3C)CC2)C(=O)N1C`, the “% Inhibition” value was 7% and the Z score was -0.81.
For `CCc1ccccc1S(=O)(=O)N1CCC[C@](CC2CC2)(C(N)=O)C1`, the “% Inhibition” value was -8% and the Z score was 1.03.
In the case of `COc1cc(N(CC(N)=O)S(C)(=O)=O)c(OC)cc1Cl`, the “% Inhibition” value is reported as -8% and the Z score is reported as 1.12.
For `CN1CCN(c2ccc(NC[C@]3(c4ccc(F)cc4)CCOC3)cc2)C1=O`, the “% Inhibition” value was 4% and the Z score was -0.59.
For `Cc1csc(=O)n1CCCC(=O)Nc1nc(-c2ccc(F)cc2Cl)cs1`, the “% Inhibition” value was 4% and the Z score was -0.5.
In the case of `C[C@@H](CN=C(N)N1CCOCC1)COCc1ccccc1`, the “% Inhibition” value is reported as 0% and the Z score is reported as 0.05.
`Cn1c(=O)n(C)c2c1ccn1cnnc21` was tested, and the “% Inhibition” value was 7% and the Z score was -0.93.
In the case of `COc1ccc2c(c1)CCCC21NC(=O)N(CC(O)COc2cc(Cl)ccc2Cl)C1=O` (stereo not drawn), the “% Inhibition” value is reported as 7% and the Z score is reported as -1.28.
With `CN(C)Cc1ccccc1CN(C)c1cc([C@H]2CCOC2)nc(N)n1` the “% Inhibition” value was 3% and the Z score was -0.39.
